Whole data set: some 33,000 sequences, median “E-score (-0.5 to 0.5)” near -0.056, cut for the highest 2% near 0.38. The list shows a part of the results.
Molecular target: Stb4 (UniProt P50104)
Assay: PBM E-score (8-mer binding enrichment) (E-score (-0.5 to 0.5)); higher = stronger / more preferred TF binding; most listed sequences are background and not binding sites
Conditions: protein concentration: 200 nM; construct: GST-DNA-binding domain
In short: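 E-scores (a modified Wilcoxon-Mann-Whitney statistic) were assigned by the Universal PBM Analysis Suite to every ungapped eight-base word pooled with its reverse complement. The input came from universal all-10-mer Agilent arrays made double-stranded by primer extension and probed with GST-tagged yeast transcription factors at about 100-200 nM. Fluorescent anti-GST detected bound protein, and masliner normalised the scans.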

Sequence | PBM E-score
GCTCGAGA | -0.171
AACATTGG | -0.0812
AGGTGTTA | -0.165
AGACATCA | -0.0771
ACTGTCAC | -0.159
CAGGGTTA | -0.321
CGACGTCC | 0.131
TCTCTGCA | -0.153
AAGTTGTA | -0.0674
CCACATCG | 0.0865
CGGGGATA | 0.318
ACGCCACC | -0.163
ATAATTTG | 0.0149
AAACAACA | -0.169
CGATTATC | 0.15
TCTGAAGA | -0.135
AGATCTCA | -0.137
GCTCGATA | -0.0522
CGGGGTCC | 0.0929
GAGAACGA | -0.14
AAGGGTCG | 0.0413
AGGCATTA | -0.0811
CATCGACG | -0.136
GGCTGTAA | 0.0828
GTAGTGAC | 0.0365

Sequence | PBM E-score
CGCATCCA | -0.126
ATGGAGAA | 0.0294
AGAACGGA | 0.134
AGTCCGAC | 0.11
GGAAATAC | 0.285
AGCGTTAC | -0.129
CCTCGACA | -0.28
CTGTCAGA | -0.0204
CTACAGTA | -0.139
CTGCAATC | 0.111
ATCCGTAG | 0.312
TAAGATGA | -0.279
GACAATAC | -0.0821
ACTCAAAA | -0.0899
CACCTCGA | -0.0678
AGTCGTTC | -0.0994
AGATGGAT | -0.218
ATTAGAGG | 6e-05
ATTCTTAC | 0.0775
CCCAGGTC | -0.297
CCTGCGCC | -0.128
TCACTGAA | 0.025
AAAACTCG | 0.195
CATCTCTC | 0.112
CCCCAGAC | -0.207

Sequence | PBM E-score
ACGCAACG | -0.0199
ATATAGAC | -0.0901
CACCGTAA | -0.116
CGTAGCGA | 0.112
ACTCGAAT | -0.165
TCAGCGAA | -0.218
CAGCTTCA | -0.0402
ATTCTCCG | 0.264
AAACACGA | -0.0874
AGATTATA | -0.0494
CACACGAG | -0.252
ATTTTGTA | -0.0843
CCGCAAGG | -0.0145
ATTGCGGA | 0.207
GAGTCCAC | -0.196
CTAACGCA | -0.0661
AAAACTGA | -0.0831
GATGGCAC | 0.0406
AGTCTGAC | -0.232
GGTGGGTA | 0.0221
CGCGACCA | 0.0077
CACGATTA | -0.151
ATCCTTCG | 0.205
CGAGAAAA | 0.109
CTAATCGC | 0.00665

Sequence | PBM E-score
AGTAATAT | 0.109
CTCAGACC | -0.116
GTGAGGTA | -0.103
CAGCCACC | 0.0352
CAGGGCTC | -0.239
CACAAAAG | 0.0681
AAGACGCT | -0.192
TATGAACA | -0.173
GCGAGGCA | 0.0697
AAATGGAA | 0.0265
ATTTAATA | 0.229
GCGCTACC | 0.058
AAGAAGCA | -0.0165
TTATCAAA | -0.0823
CATAAAGA | -0.238
CTACGAAA | -0.134
AGCACCAC | -0.118
AATACCGT | 0.0892
CTCTGACA | -0.122
TCAGTACA | -0.116
GCCGTGCC | 0.158
ATGTTCCC | 0.153
AACTGCAA | -0.054
CACCGTGC | -0.0741
CCCGGACC | 0.26

Sequence | PBM E-score
CCGCGGAA | 0.352
CTTGAAGC | -0.104
GAACTCAC | -0.0382
ATAGGCGC | -0.0788
CCCCGTCA | 0.0967
ATTCCAGC | -0.0999
ACGTATAA | -0.145
ACCCCTAG | -0.369
CGGATGCA | 0.361
GAATTTGC | 0.131
GGTGAGAC | -0.00138
AGTCTTCC | 0.103
AGGAAAGC | -0.0848
ACTAAAGT | -0.161
CGACAATC | 0.159
AGTGATCA | -0.172
AGACGTAT | -0.131
GGCGCACC | 0.024
CCAAACCA | -0.162
AACTGCAG | -0.241
GTTATTAA | 0.141
GACACTTA | 0.00204
GCTGCAGA | -0.0718
AAACACTT | -0.114
ATGTCAAA | -0.078

Sequence | PBM E-score
AACGCGAG | -0.0588
TAGGATCA | -0.0704
ACACGCAA | -0.238
GCAACCCA | -0.1
GCCCCGGA | 0.385
ACTGACCC | 0.192
CGGGTCTA | 0.245
AGTAGTGG | -0.11
AATTAGAA | -0.0287
ACATGTCA | -0.226
AGGCGGGC | -0.0152
ACCCGTAC | 0.198
ATAAAGGC | 0.0147
AGAACTCA | -0.0669
CGGTCTCC | 0.104
ACGATACG | -0.314
CGAAGGGA | -0.0506
GGCAACGA | 0.0169
GAATCGGA | 0.38
CTAGTCCA | -0.153
CCCGACCG | 0.327
AGTTTGAT | 0.0051
CAAAGTGA | -0.0524
CAACCCCA | -0.0266
CAGACACC | -0.0503

Sequence | PBM E-score
AAATGGCA | -0.138
GTAGTATA | -0.0794
AAGGCTTA | -0.123
CATGCTCG | 0.0207
ATGGGACG | -0.184
CAAAGGGC | -0.176
CTTTTAAA | 0.0635
ATTACCTG | -0.0886
CCGCAGCA | 0.128
AAGGCCGT | -0.0669
ACCGCATG | -0.21
AGGCGCCG | 0.0647
AGTGTTAC | 0.0516
ACGCTTGA | -0.308
AACGTAAT | -0.262
AGGCTCGC | -0.00633
CGAAGGAA | 0.0508
ATAAGGGA | -0.159
ATCGGAGC | 0.282
GAGGGACA | -0.206
ATGTTAAT | 0.0362
CCAGCCGC | 0.181

— the supplement of paper PMC3334620
